± gives the standard deviation of the averaged measurements. Over roughly 33,000 sequences, “E-score (dimensionless, -0.5 to 0.5)” has its median near -0.049; the highest 2% begin near 0.37. Some of the results follow.
These sequences were tested on T1, PmTbr T-box DNA-binding domain (GST fusion) (assay: PBM E-score of 8-mer (E-score (dimensionless, -0.5 to 0.5)); Tbr is Tbrain of the sea star Patiria miniata (Pm) or the sea urchin Strongylocentrotus purpuratus (Sp); higher = stronger binding preference; most listed sequences are background and not binding sites). Settings: the construct has about 5 more residues each side.
T1 sequence: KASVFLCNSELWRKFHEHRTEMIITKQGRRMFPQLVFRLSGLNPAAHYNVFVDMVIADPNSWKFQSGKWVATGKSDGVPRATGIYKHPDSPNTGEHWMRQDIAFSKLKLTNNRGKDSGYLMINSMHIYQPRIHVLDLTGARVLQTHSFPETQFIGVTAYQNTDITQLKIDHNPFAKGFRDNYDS
Procedure, shortened: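 Using the Universal PBM Analysis Suite, every ungapped 8-mer received an enrichment E-score averaged over duplicate arrays. Probe intensities came from double-stranded Universal Agilent oligonucleotide arrays incubated with 200 nM GST-fused Tbr T-box DNA-binding domain in PBS (pH 7.5). That protein was expressed in BL21 E. coli at 20 °C and purified by glutathione affinity chromatography.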

Sequence	PBM E-score of 8-mer
TTACTCAA	-0.0164 ± 0.0015
CATGCCAA	-0.0187 ± 0.084
ATGAAAGA	0.0147 ± 0.061
ACTCGGCC	0.0187 ± 0.094
CTTCCCCC	-0.166 ± 0.07
ATGCATAC	-0.0833 ± 0.01
AGCCATAG	-0.0194 ± 0.015
AGTGGTGA	0.23181 ± 0.00023
ACAAAACA	0.15 ± 0.026
CCGGACGC	-0.215 ± 0.11
ATGTAGTG	0.077 ± 0.043
GTTATAAA	0.099 ± 0.062
CTCACAGA	0.118 ± 0.06
GTTAGTAA	-0.0176 ± 0.018
AAGACTTG	-0.0606 ± 0.04
AGTTGCAG	-0.0251 ± 0.01
ACTTGATA	0.136 ± 0.066
CTGCGCCC	-0.159 ± 0.12
CCTTTACC	-0.0485 ± 0.032
CGATTGCG	0.0928 ± 0.028
AAGCTCCC	-0.33 ± 0.026
GGTTATGA	-0.107 ± 0.053
GGTGATCA	0.247 ± 0.025
CAGGCTCA	-0.243 ± 0.0038
GGCTAAGA	-0.278 ± 0.05

Sequence	PBM E-score of 8-mer
AACCAGTT	-0.0812 ± 0.0099
AGCGCCGG	0.00509 ± 0.059
ACGGAGTA	-0.279 ± 0.052
AGACATTG	-0.181 ± 0.025
TACTGAAA	-0.104 ± 0.051
GCCCCGAC	-0.132 ± 0.069
CGTACACC	0.0939 ± 0.0018
AAAGGGCT	-0.2 ± 0.024
ACGCGCGT	0.279 ± 0.011
AGCCTCGG	-0.2 ± 0.0076
AGATGTCA	0.0756 ± 0.01
ACGTACAC	0.161 ± 0.093
TATTATAA	0.0461 ± 0.053
CCAAAACG	-0.116 ± 0.027
CCACAGGA	-0.187 ± 0.016
AAGAGCCC	-0.245 ± 0.016
TACACCAA	0.0439 ± 0.018
AGGCCACT	-0.135 ± 0.061
TCGCAGAA	0.105 ± 0.07
AATAGTCT	-0.175 ± 0.032
ACAGTTTC	0.143 ± 0.058
TACCAAGA	-0.122 ± 0.058
ATGTCGGC	-0.137 ± 0.042
GCAGTTGA	-0.00204 ± 0.027
CCCCAGCA	-0.0835 ± 0.13

Sequence	PBM E-score of 8-mer
AACTGCCC	-0.0599 ± 0.028
CACCCGAC	0.26 ± 0.037
CTGGCGTC	0.128 ± 0.01
ATTCCCTA	-0.181 ± 0.05
CCTTTTCA	0.129 ± 0.045
AAGCGCCA	0.0797 ± 0.027
AGTCCAAA	-0.0523 ± 0.057
ACTTCAAT	0.0286 ± 0.051
ATTGTTGC	0.093 ± 0.0053
AGCTACTC	-0.12 ± 0.048
GCTACATA	-0.0401 ± 0.1
CCACGACC	-0.1558 ± 0.0013
AGCCACTA	0.0231 ± 0.014
CGGTCATC	-0.0674 ± 0.068
CACATTAC	0.169 ± 0.021
AAAATGGG	-0.136 ± 0.027
AGCTCGGC	-0.0514 ± 0.02
CACTATAG	0.132 ± 0.021
GAGAAGGA	-0.05879 ± 0.00027
ATATCCTA	0.0612 ± 0.018
ACGTGCGG	0.191 ± 0.05
CTCTTCTA	-0.215 ± 0.1
GGATTTAC	-0.0731 ± 0.089
CCCCACGG	-0.141 ± 0.02
GAATCTCA	-0.00438 ± 0.087

Sequence	PBM E-score of 8-mer
GAAGGTAA	0.00393 ± 0.033
CTCAGATC	-0.0445 ± 0.0025
ACGCCGTC	0.0297 ± 0.06
ACTAATGC	-0.0928 ± 0.014
AAGAACTG	-0.0374 ± 0.042
AGCCTGAT	-0.0175 ± 0.0064
ATACGCAC	0.185 ± 0.035
ATCGTCCA	-0.209 ± 0.0024
GGCGTCGA	0.2859 ± 0.001
CCGACCTC	-0.0831 ± 0.028
TGTGGGAA	0.19 ± 0.044
CTCAGACA	0.0672 ± 0.014
AATCATTG	0.0313 ± 0.08
CTTACTGA	-0.15 ± 0.022
CGTTATGC	-0.182 ± 0.045
ACTTTGTA	-0.0604 ± 0.091
CGGCCTAC	-0.111 ± 0.013
ATCTACAC	0.12 ± 0.071
CCCGATAG	-0.0866 ± 0.04
CAATTCCA	0.0475 ± 0.027
CCCCTACC	-0.161 ± 0.015
ACAAAAAG	0.0751 ± 0.056
ATGCTGAC	-0.219 ± 0.057
GAAGTAGA	-0.108 ± 0.043
ACAAGCAT	-0.0836 ± 0.09

Sequence	PBM E-score of 8-mer
AGCCACAG	-0.103 ± 0.04
CGATGCTC	-0.0504 ± 0.069
TCACTGCA	0.158 ± 0.043
TAAACGGA	-0.174 ± 0.057
CGATACGA	0.0264 ± 0.0098
ACTTTTAT	0.0193 ± 0.1
ATCATTTG	-0.105 ± 0.02
GGGTAATA	-0.219 ± 0.068
AATAAGAT	-0.278 ± 0.029
TAGCGTGA	0.342 ± 0.0046
TGGGTACA	-0.202 ± 0.034
CGGCTCGC	0.0624 ± 0.063
CATTGAAG	-0.0382 ± 0.035
TTAGCGAA	0.182 ± 0.041
CAGCAAAC	-0.0206 ± 0.022
GATATGTA	-0.163 ± 0.051
CCCTACTA	-0.11 ± 0.026
CCGACCAC	-0.0651 ± 0.017
AAATTACT	0.0462 ± 0.059
CTGAATTA	-0.0432 ± 0.00054
CTGCTAGC	0.115 ± 0.026
AGCGCAAT	0.0713 ± 0.0017
AACTCTGA	-0.1366 ± 0.0004
AGATCTTG	0.0816 ± 0.037
ACTAGGAC	-0.144 ± 0.05

Sequence	PBM E-score of 8-mer
GAAAGTGA	0.321 ± 0.007
AACCAGAA	-0.0657 ± 0.0077
CTGCACTA	-0.0615 ± 0.0083
AGGCATAA	-0.0918 ± 0.035
CAATATAG	0.203 ± 0.033
CAGAAAGC	-0.192 ± 0.014
GGTTTAAA	0.0187 ± 0.0062
ACGTCGAA	-0.235 ± 0.056
AAGTCCGT	-0.107 ± 0.0046
GTGCACAA	0.0769 ± 0.0029
ATGGTCGG	-0.337 ± 0.025
AGTACCGC	-0.0413 ± 0.045
ATTGTCTG	-0.169 ± 0.009
CTGGGGAA	-0.0513 ± 0.068
TAATTGTA	-0.282 ± 0.023
AGAACCTC	-0.197 ± 0.047
CCGTAGCG	-0.169 ± 0.0029
ATCATCAC	0.381 ± 0.008
ACACCGTA	0.216 ± 0.016
ACTTCGCA	0.351 ± 0.0071
CAGGTAGC	-0.062 ± 0.011
CCTCATCC	-0.0237 ± 0.038
TCAAGTGA	0.147 ± 0.036
CTACGGGC	-0.126 ± 0.08
CAATGCGC	0.0146 ± 0.087

Sequence	PBM E-score of 8-mer
TGGGAAAA	0.0876 ± 0.041
TCTCAGAA	-0.165 ± 0.036
AAGCATTA	-0.0757 ± 0.075
AATATTGA	-0.0213 ± 0.066
CCCTACCC	-0.222 ± 0.0063
GACGTGCA	0.155 ± 0.018
AGGCCTCG	-0.0795 ± 0.089
AATATTCG	0.0865 ± 0.092
AGATGACT	-0.198 ± 0.0034
GCAAACGC	0.0327 ± 0.067
ATGCTCCA	-0.0597 ± 0.036
GAATTCGC	0.26 ± 0.06
CGACGCCG	0.147 ± 0.031
AAAAGAGG	-0.0773 ± 0.0089
GACGTATC	-0.236 ± 0.055
CAATCTCG	0.136 ± 0.042
AAGGACGA	-0.202 ± 0.033
ACCGGGCC	-0.292 ± 0.12
ACCGACAC	0.391 ± 0.02
AGGTATAC	-0.226 ± 0.008
GCTTTGAC	-0.034 ± 0.033
TAGTAGGA	-0.184 ± 0.025
